Source: PubChem BioAssay AID504466 (National Center for Advancing Translational Sciences (NCATS), 2011)
The campaign covered roughly 330,000 compounds. About 4,200 (1.3%) were called active. The inconclusive results got no clear call from the source; some entries with a clear call stand among them for comparison. The call rests on the fitted dose curve; in most records, active means well fitted activation curve with a large enough effect; inconclusive means small, poorly fitted or top-dose-only effect; inactive means no such curve, though single readings can be large or run the other way. A potency beside an inconclusive call is a rough fit, not a confirmed value.

assay: qHTS screen for small molecules that induce genotoxicity in human embryonic kidney (HEK293T) cells expressing luciferase-tagged ELG1; conditions: HEK293T ELG1-luciferase reporter, luminescence, 16 h; series mostly up to 46 µM; further: nearly all actives have a fitted effect of over 60% in size
How it was run: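 HEK293T cells expressing luciferase-tagged ELG1 were treated with compound or DMSO for 16 hr at 37°C. Luciferase activity was then read after 30 min with ONE-Glo at room temperature; rising signal flags genetic stress.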
Potency means the concentration at half of the fitted maximal effect; tags describe the fitted curve by direction and shape.

Question: With `CSc1nsc(SCC(=O)N2CCCCC2)n1` as the molecule, how does the Potency read?
Answer: inconclusive: 29.1 µM [activator, single point]

Question: For `Cc1ccsc1CN(C)C(=O)C1CCC(=O)N(CCc2cccc(F)c2)C1` (stereo unspecified), which Potency is on record?
Answer: inconclusive: 14.6 µM [activator, partial curve, poor fit]

Question: Which Potency does the source give for `Cc1nn(-c2ccccc2)c(C)c1/C=N/NC(=O)CSc1nnc(SCc2ccccc2Cl)s1` here?
Answer: inactive

Question: With `O=C(N/N=C/c1cccnc1)c1cc2ccccc2cc1O` as the molecule, how does the Potency read?
Answer: inconclusive: 25.9 µM [activator, partial curve, poor fit]

Question: With `COc1ccc(C(=O)/C=C/Nc2cc(C)on2)cc1` as the molecule, how does the Potency read?
Answer: active: 6.51 µM

Question: Which Potency does the source give for `Nc1nc(-c2ccc3c(c2)NC(=O)CO3)cs1` here?
Answer: inconclusive: 14.6 µM [activator, partial curve, poor fit]

Question: Which Potency does the source give for `Cc1occc1C(=O)NCCc1ccc(Cl)cc1` here?
Answer: inconclusive: 16.4 µM [activator, partial curve, poor fit]

Question: With `CSc1nnc(-c2sc3cc(Cl)ccc3c2Cl)n1C` as the molecule, how does the Potency read?
Answer: inconclusive: 18.4 µM [activator, partial curve, poor fit]

Question: With `CC(SCc1ccccc1)C(=O)Nc1ccc2c(c1)OCO2` (stereo unspecified) as the molecule, how does the Potency read?
Answer: inactive

Question: Which Potency does the source give for `O=C(COc1ccccc1)N1CCN(c2ccccc2)CC1` here?
Answer: inactive

Question: For `N#C/C(=C\c1ccncc1)c1nc2ccccc2c(=O)[nH]1`, which Potency is on record?
Answer: inactive

Question: Which Potency does the source give for `CCOc1ccc(OCc2cccc(C(=O)N/N=C/c3cccnc3)c2)cc1` here?
Answer: active: 0.231 µM

Question: For `CCN(c1ccccc1)S(=O)(=O)c1ccc(C(=O)N2CC(C)CC(C)C2)cc1` (stereo unspecified), which Potency is on record?
Answer: inconclusive: 18.3 µM [activator, single point]

Question: With `Fc1ccccc1NC(=S)NCCc1ccc(Cl)cc1` as the molecule, how does the Potency read?
Answer: inconclusive: 11.6 µM [activator, partial curve, poor fit]

Question: With `COc1cc(/C=N/Nc2ccccc2)ccc1OC(=O)c1cccs1` as the molecule, how does the Potency read?
Answer: inconclusive: 29.1 µM [activator, partial curve, poor fit]

Question: With `O=C(Nc1cccc(NC(=O)c2ccc(Cl)cc2)n1)c1ccc(Cl)cc1` as the molecule, how does the Potency read?
Answer: inconclusive: 29.1 µM [activator, single point]

Question: Which Potency does the source give for `CCc1ccccc1NC(=S)NC1CC2CCC(C1)N2Cc1ccc(F)cc1` (stereo unspecified) here?
Answer: inactive

Question: Which Potency does the source give for `NC(=S)Nc1cnc2ccccc2c1` here?
Answer: inconclusive: 32.6 µM [activator, partial curve, poor fit]

Question: With `COc1ccc(C(=O)N(Cc2ccccc2)c2cccc(C)c2)cc1` as the molecule, how does the Potency read?
Answer: active: 14.6 µM

Question: For `CCOC(=O)N1[C@@H]2C=C(C)[C@@H]2[C@@H]2[C@@H](C)C(=O)N21`, which Potency is on record?
Answer: inactive

Question: For `COc1ccc(/C=C(\C#N)c2nc3ccccc3[nH]2)cc1O`, which Potency is on record?
Answer: inconclusive: 2.31 µM [activator, partial curve, poor fit]

Question: With `CCN1CCN(C(=O)c2cc(COc3ccc(C(C)=O)cc3OC)on2)CC1` as the molecule, how does the Potency read?
Answer: inconclusive: 20.6 µM [activator, partial curve]

Question: Which Potency does the source give for `Cn1cc(C(=O)N/N=C/c2c(O)ccc3ccccc23)ccc1=O` here?
Answer: inconclusive: 11.6 µM [activator, partial curve, poor fit]

Question: For `Cn1ncc(Br)c1C(=O)Nc1c(F)c(F)cc(F)c1F`, which Potency is on record?
Answer: inactive

Question: Which Potency does the source give for `COC(=O)C(C)NC(=O)CNS(=O)(=O)c1ccc(F)cc1` (stereo unspecified) here?
Answer: inactive

Question: For `O=C(Nc1ccccc1)c1ccccc1O`, which Potency is on record?
Answer: inconclusive: 20.6 µM [activator, single point]

Question: With `COc1cccc2c(N/N=C/c3ccc(O)c(O)c3)cc(C)nc12` as the molecule, how does the Potency read?
Answer: inconclusive: 20.6 µM [activator, single point]

Question: With `Cc1ccc(OCC(=O)NCc2cccs2)c([N+](=O)[O-])n1` as the molecule, how does the Potency read?
Answer: inactive

Question: With `CCOCCc1nnc(NC(=O)c2cc(OC)c(OC)c(OC)c2)s1` as the molecule, how does the Potency read?
Answer: inactive

Question: With `COc1ccc2c(=O)c(-c3nc(C)cs3)coc2c1` as the molecule, how does the Potency read?
Answer: inconclusive: 0.651 µM [activator, full curve]

Question: With `Cc1cccc(C)c1NC(=O)/C(C#N)=C/c1ccc(-c2ccc(C(=O)O)cc2)o1` as the molecule, how does the Potency read?
Answer: inconclusive: 1.83 µM [activator, partial curve, poor fit]

Question: Which Potency does the source give for `N/C(=N\OC(=O)c1ccccc1Cl)c1ccccn1` here?
Answer: active: 0.517 µM

Question: With `Cn1nccc1C(=O)Nc1ccc2c(c1)OCCO2` as the molecule, how does the Potency read?
Answer: inconclusive: 14.6 µM [activator, partial curve]

Question: Which Potency does the source give for `C/C(=N\NC(=O)c1cc(C)oc1C)c1ccc(C)c([N+](=O)[O-])c1` here?
Answer: inconclusive: 25.9 µM [activator, partial curve, poor fit]

Question: With `Cc1cccc(C(=O)Nc2ccccc2C(=O)OCC(=O)Nc2ccc(C#N)cc2)c1` as the molecule, how does the Potency read?
Answer: inconclusive: 10.3 µM [activator, partial curve, poor fit]

Question: With `COc1ccc(/C(N)=N/OC(=O)C2CCCCC2)cc1` as the molecule, how does the Potency read?
Answer: active: 8.2 µM

Question: For `C/C(=N\NC(=O)COc1ccccc1)c1cccs1`, which Potency is on record?
Answer: inconclusive: 18.4 µM [activator, partial curve, poor fit]

Question: With `COc1ccc(-c2cn3ccccc3n2)cc1[N+](=O)[O-]` as the molecule, how does the Potency read?
Answer: inconclusive: 11.6 µM [activator, partial curve]

Question: For `Cc1ccc2nc(-c3ccccn3)oc2c1`, which Potency is on record?
Answer: inconclusive: 2.06 µM [activator, full curve]

Question: Which Potency does the source give for `O=C(N/N=C/c1ccccn1)c1cccc([N+](=O)[O-])c1` here?
Answer: inconclusive: 29.1 µM [activator, single point]

Question: For `COc1ccc(-c2noc(-c3ccccc3-c3ccccc3)n2)cc1OC`, which Potency is on record?
Answer: inactive

Question: For `Cc1cc(C(=O)COc2ncnc3sccc23)c(C)n1C1CC1`, which Potency is on record?
Answer: inconclusive: 23.1 µM [activator, partial curve, poor fit]

Question: Which Potency does the source give for `COc1ccc(CCN(C)C(=O)c2cc(-c3ccccc3)nc3ccc(C)cc23)cc1OC` here?
Answer: inconclusive: 11.6 µM [activator, partial curve]

Question: With `CCOc1ccc2nc(NC(=O)CN3C(=O)NC4(CCCC4)C3=O)sc2c1` as the molecule, how does the Potency read?
Answer: inconclusive: 14.6 µM [activator, partial curve]

Question: With `CCCN1C(=O)c2ccc(C(=O)Nc3ccccc3C(=O)O)cc2C1=O` as the molecule, how does the Potency read?
Answer: inactive

Question: With `CC(=O)N(C)c1ccc(OCC(O)COc2ccc(N(C)C(C)=O)cc2)cc1` as the molecule, how does the Potency read?
Answer: inconclusive: 29.1 µM [activator, partial curve, poor fit]
